Source: patent US4897463A, “Biologically active peptides which inhibit toxoplasma multiplication” (priority 1987, dated 1990)
“Also recorded” adds a separate entry of the source. Not every detail of the peptide structures is certain; ends, links or a residue may be inferred. Ends that are not written are not given here.

How the values were obtained:
Type in all cases: cell-based, Toxoplasma gondii
Toxoplasma RH strain [1] = experiment: Toxo-GIF activity (inhibition of Toxoplasma multiplication) in mouse peritoneal macrophages; conditions: for Toxo-GIF activity (in words): synthesized peptides, 0.5 mg/ml
Toxoplasma RH strain [2] = experiment: Toxo-GIF activity in canine (dog) monocytes
Toxoplasma RH strain [3] = experiment: Toxo-GIF activity in human cardiac muscle (Girardi Heart) cells
[4] = Table 4, synthesized peptide 0.5 mg/ml
[5] = Table 4, synthesized peptide 0.5 mg/ml, mean ± S.D.
[6] = Table 6, Mouse Macrophages, GpG 0.05 mg/ml
[7] = Table 7, A GpG 0.5 mg/ml + B GpG 0.5 mg/ml
[8] = Table 7, GpG 0.5 mg/ml alone (B: --)
[9] = dose dependency, mouse macrophages
[10] = Table 6, Dog Monocytes, GpG 0.05 mg/ml
[11] = Table 6, Human Cardiac Muscle, GpG 0.05 mg/ml

## ADDDDD [ApA, Ala-Asp-Asp-Asp-Asp-Asp]
Toxoplasma RH strain [1]; [4]
  Toxo-GIF Activity (%): 39.3%
Toxoplasma RH strain [1]; [5]
  Percentage of Cells Containing Toxoplasma 0 Tp: 90.0 ± 6.0%
  Percentage of Cells Containing Toxoplasma 1 to 5 Tp: 5.8 ± 3.1%
  Percentage of Cells Containing Toxoplasma ≥6 Tp/cell: 4.2 ± 3.3%
Toxoplasma RH strain [1]; Table 4, synthesized peptide 0.5 mg/ml, listed as Ala--Asp--Asp--Asp--Asp--Asp
  Toxo-GIF Activity (%): 39.0%
Toxoplasma RH strain [1]
  Toxo-GIF activity (in words): exhibit Toxo-GIF activities

## AEEEEE [ApG, Ala-Glu-Glu-Glu-Glu-Glu]
Toxoplasma RH strain [1]; [4]
  Toxo-GIF Activity (%): -46.3%
Toxoplasma RH strain [1]; [5]
  Percentage of Cells Containing Toxoplasma 0 Tp: 76.0 ± 20.5%
  Percentage of Cells Containing Toxoplasma 1 to 5 Tp: 10.8 ± 7.6%
  Percentage of Cells Containing Toxoplasma ≥6 Tp/cell: 13.0 ± 12.9%

## DDDDD [pA, Asp-Asp-Asp-Asp-Asp]
Toxoplasma RH strain [1]; [4]
  Toxo-GIF Activity (%): 39.9%
Toxoplasma RH strain [1]; [5]
  Percentage of Cells Containing Toxoplasma 0 Tp: 90.0 ± 8.5%
  Percentage of Cells Containing Toxoplasma 1 to 5 Tp: 3.8 ± 2.4%
  Percentage of Cells Containing Toxoplasma ≥6 Tp/cell: 6.2 ± 6.4%
Toxoplasma RH strain [1]; Table 4, synthesized peptide 0.5 mg/ml, listed as Asp--Asp--Asp--Asp--Asp
  Toxo-GIF Activity (%): 39.0%
Toxoplasma RH strain [1]
  Toxo-GIF activity (in words): exhibit Toxo-GIF activities

## GDDDDD [GpA, Gly-Asp-Asp-Asp-Asp-Asp]
Toxoplasma RH strain [1]; [4]
  Toxo-GIF Activity (%): -2.4%
Toxoplasma RH strain [1]; [5]
  Percentage of Cells Containing Toxoplasma 0 Tp: 83.2 ± 7.5%
  Percentage of Cells Containing Toxoplasma 1 to 5 Tp: 9.8 ± 4.6%
  Percentage of Cells Containing Toxoplasma ≥6 Tp/cell: 7.0 ± 3.7%

## GEEEEE [GpG, Gly-Glu-Glu-Glu-Glu-Glu]
Toxoplasma RH strain [1]
  concentration at which Toxo-GIF activity becomes appreciable / sufficient activity is detected: 0.25 mg/mL
Toxoplasma RH strain [1]; [4]
  Toxo-GIF Activity (%): 79.3%
Toxoplasma RH strain [1]; [5]
  Percentage of Cells Containing Toxoplasma 0 Tp: 96.6 ± 3.4%
  Percentage of Cells Containing Toxoplasma 1 to 5 Tp: 2.6 ± 2.6%
  Percentage of Cells Containing Toxoplasma ≥6 Tp/cell: 0.8 ± 0.8%
Toxoplasma RH strain [1]; Table 5, GpG 0.025 mg/ml
  Percentage of Cells Containing Toxoplasma (%) 0 Tp: 82.6 ± 10.8%
  Percentage of Cells Containing Toxoplasma (%) 1 to 5 Tp: 9.8 ± 6.3%
  Percentage of Cells Containing Toxoplasma (%) ≥6 Tp/cell: 7.6 ± 4.8%
  Toxo-GIF Activity (%): -8.8%
Toxoplasma RH strain [1]; Table 5, GpG 0.050 mg/ml
  Percentage of Cells Containing Toxoplasma (%) 0 Tp: 88.4 ± 7.6%
  Percentage of Cells Containing Toxoplasma (%) 1 to 5 Tp: 7.0 ± 4.5%
  Percentage of Cells Containing Toxoplasma (%) ≥6 Tp/cell: 4.6 ± 4.2%
  Toxo-GIF Activity (%): 27.5%
Toxoplasma RH strain [1]; Table 5, GpG 0.100 mg/ml
  Percentage of Cells Containing Toxoplasma (%) 0 Tp: 90.8 ± 6.4%
  Percentage of Cells Containing Toxoplasma (%) 1 to 5 Tp: 5.2 ± 3.4%
  Percentage of Cells Containing Toxoplasma (%) ≥6 Tp/cell: 4.0 ± 3.4%
  Toxo-GIF Activity (%): 42.5%
Toxoplasma RH strain [1]; Table 5, GpG 0.250 mg/ml
  Percentage of Cells Containing Toxoplasma (%) 0 Tp: 93.4 ± 6.3%
  Percentage of Cells Containing Toxoplasma (%) 1 to 5 Tp: 4.2 ± 4.1%
  Percentage of Cells Containing Toxoplasma (%) ≥6 Tp/cell: 2.4 ± 2.4%
  Toxo-GIF Activity (%): 58.8%
Toxoplasma RH strain [1]; Table 5, GpG 0.500 mg/ml
  Percentage of Cells Containing Toxoplasma (%) 0 Tp: 99.4 ± 0.5%
  Percentage of Cells Containing Toxoplasma (%) 1 to 5 Tp: 0.6 ± 0.5%
  Percentage of Cells Containing Toxoplasma (%) ≥6 Tp/cell: 0%
  Toxo-GIF Activity (%): 96.3%
Toxoplasma RH strain [1]; Table 5, GpG 1.000 mg/ml
  Percentage of Cells Containing Toxoplasma (%) 0 Tp: 99.8 ± 0.4%
  Percentage of Cells Containing Toxoplasma (%) 1 to 5 Tp: 0.2 ± 0.4%
  Percentage of Cells Containing Toxoplasma (%) ≥6 Tp/cell: 0%
  Toxo-GIF Activity (%): 98.8%
Toxoplasma RH strain [1]; [6]
  Percentage of Cells Containing Toxoplasma 0 Tp: 88.4 ± 7.6%
  Percentage of Cells Containing Toxoplasma 1 to 5 Tp: 7.0 ± 4.5%
  Percentage of Cells Containing Toxoplasma ≥6 Tp/cell: 4.6 ± 4.2%
  Toxo-GIF Activity (%): 50.4%
Toxoplasma RH strain [1]; [7]
  Percentage of Cells Containing Toxoplasma 0 Tp: 100%
  Percentage of Cells Containing Toxoplasma 1 to 5 Tp: 0%
  Percentage of Cells Containing Toxoplasma ≥6 Tp/cell: 0%
  Toxo-GIF Activity (%): 100%
Toxoplasma RH strain [1]; [8]
  Percentage of Cells Containing Toxoplasma 0 Tp: 100%
  Percentage of Cells Containing Toxoplasma 1 to 5 Tp: 0%
  Percentage of Cells Containing Toxoplasma ≥6 Tp/cell: 0%
  Toxo-GIF Activity (%): 100%
Toxoplasma RH strain [1]; [9]
  concentration at which Toxo-GIF activity was shown: above 0.05 mg/ml
  concentration at which the Toxo-GIF activity was saturated: 0.5 mg/mL
Toxoplasma RH strain [1]; mouse, dog and human cells compared
  species specificity of Toxo-GIF activity: did not exhibit species specificity; also recorded: no species specificity
Toxoplasma RH strain [2]; [10]
  Percentage of Cells Containing Toxoplasma 0 Tp: 80.5 ± 6.4%
  Percentage of Cells Containing Toxoplasma 1 to 5 Tp: 12.8 ± 5.4%
  Percentage of Cells Containing Toxoplasma ≥6 Tp/cell: 6.7 ± 3.3%
  Toxo-GIF Activity (%): 67.4%
Toxoplasma RH strain [2]; canine monocytes
  Toxo-GIF activity (in words): appreciable Toxo-GIF activities
Toxoplasma RH strain [3]; [11]
  Percentage of Cells Containing Toxoplasma 0 Tp: 80.7 ± 6.1%
  Percentage of Cells Containing Toxoplasma 1 to 5 Tp: 10.6 ± 3.4%
  Percentage of Cells Containing Toxoplasma ≥6 Tp/cell: 8.7 ± 2.1%
  Toxo-GIF Activity (%): 57.7%
Toxoplasma RH strain [3]; human cardiac muscle cell
  Toxo-GIF activity (in words): appreciable Toxo-GIF activities
